# The full list was thinned out, with the strongest signals kept by preference.
# Legend:
# Assay in all cases: glycan array binding signal (z-score within array); higher = stronger binding
# Settings in all cases: glycan notation: IUPAC condensed, linker removed
# [1] = test system: Gal(b1-3)[Neu5Ac(b2-6)]GlcNAc
# Procedure, shortened: (§1)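 From the Consortium for Functional Glycomics database, 3228 arrays were curated, keeping only those whose protein sequence was available. Binding is given as a within-array Z-score averaged across arrays sharing a protein sequence and across linkers. Negative Z-scores can be read as non-binding.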
# [2] = test system: Gal(b1-4)GlcNAc(a1-6)Gal(b1-4)GlcNAc
# Procedure, shortened: as §1
# [3] = test system: Gal(b1-4)GlcNAc(b1-2)Man(a1-3)[Gal(b1-4)GlcNAc(b1-2)Man(a1-6)]Man(b1-4)GlcNAc(b1-4)GlcNAc
# Procedure, shortened: as §1
# [4] = test system: Gal(b1-4)GlcNAc(b1-2)Man(a1-3)[Gal(b1-4)GlcNAc(b1-2)Man(a1-6)][Gal(b1-4)GlcNAc(b1-4)]Man(b1-4)GlcNAc(b1-4)[Fuc(a1-6)]GlcNAc
# Procedure, shortened: as §1
# [5] = test system: Gal(b1-4)GlcNAc(b1-2)Man(a1-3)[GlcNAc(b1-4)][Gal(b1-4)GlcNAc(b1-2)Man(a1-6)]Man(b1-4)GlcNAc(b1-4)GlcNAc
# Procedure, shortened: as §1
# [6] = test system: Gal(b1-4)GlcNAc(b1-2)[Gal(b1-4)GlcNAc(b1-4)]Man(a1-3)[Gal(b1-4)GlcNAc(b1-2)Man(a1-6)]Man(b1-4)GlcNAc(b1-4)GlcNAc
# Procedure, shortened: as §1
# [7] = test system: Gal(b1-4)GlcNAc(b1-2)Man(a1-6)Man(b1-4)GlcNAc(b1-4)GlcNAc
# Procedure, shortened: as §1
substance,measurement,setting,value
H-Ficolin (Homo sapiens) (chain not printed),glycan array binding signal (z-score),[1],-0.859
CLEC-2 (Homo sapiens) (chain not printed),glycan array binding signal (z-score),[2],-0.455
L-Ficolin (Homo sapiens) (chain not printed),glycan array binding signal (z-score),[2],3.18
Serum Amyloid P component (Homo sapiens) (chain not printed),glycan array binding signal (z-score),[3],-0.695
M-Ficolin G221F A256V (Homo sapiens) (chain not printed),glycan array binding signal (z-score),[3],1.51
Thrombomodulin Extracellular (Homo sapiens) (chain not printed),glycan array binding signal (z-score),[4],-0.795
FGF2 (chain not printed),glycan array binding signal (z-score),[4],0.213
Gal 3 (Homo sapiens) (chain not printed),glycan array binding signal (z-score),[5],-0.241
same,glycan array binding signal (z-score),[6],-0.202
M-Ficolin G221F (Homo sapiens) (chain not printed),glycan array binding signal (z-score),[7],-0.171
MBP (Homo sapiens) (chain not printed),glycan array binding signal (z-score),[7],-0.305

# From the supplement of paper PMC8728848
